# Some of the results follow.
# B1: Clec49 (Caenorhabditis elegans) (protein)
# chain: MTRLTLLLFGLLGAATAQTCNTGGIYNEQFNRCYQYFTAPAQFSFAEQQCNLLGGHLASVQNGQENALLQSNAANSFKRSNYSDYWIGATDLETSGTWKWTDPSVTFDYSNWQLGEPQSGSDCAIQDKGDGTWSAIGCTSYRPYVCVTPVIMTATCPPITTPIPTTCPTPAPCPIKQCVPSCDQGWTYFSPTDFCYRVYHGEKFNDAEASCVLLGGHLASIHSLTENTFVNNIASCGIKEGKYEHLAWIGMRKVGQDWVWTDGTPSDYFNWAPKQPDNPKKELCVQTAPDLSHDKWYENWNNLECNEVMRAYICKKASIHN
# Tests used:
# Test in all cases: glycan array binding signal (z-score within array); higher = stronger binding
# Conditions in all cases: glycan notation: IUPAC condensed, linker removed
# [1] = target: Fuc(a1-2)[GalNAc(a1-3)]Gal(b1-3)GlcNAc(b1-6)GalNAc
# Method in brief: (§1)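 The Consortium for Functional Glycomics database supplied 3228 glycan arrays, of which those lacking an available protein sequence were dropped. The binding signal, a within-array Z-score, was averaged across arrays of the same protein sequence and across linkers. Negative scores can be read as non-binding.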
# [2] = target: Fuc(a1-2)[GalNAc(a1-3)]Gal(b1-4)Glc
# Method in brief: as §1
# [3] = target: Fuc(a1-2)[GalNAc(a1-3)]Gal(b1-4)GlcNAc
# Method in brief: as §1
# [4] = target: Fuc(a1-2)[GalNAc(a1-3)]Gal(b1-4)GlcNAc(b1-2)Man
# Method in brief: as §1
# [5] = target: Fuc(a1-2)[GalNAc(a1-3)]Gal(b1-4)GlcNAc(b1-2)Man(a1-3)[Fuc(a1-2)[GalNAc(a1-3)]Gal(b1-4)GlcNAc(b1-2)Man(a1-6)]Man(b1-4)GlcNAc(b1-4)GlcNAc
# Method in brief: as §1
# [6] = target: Fuc(a1-2)[GalNAc(a1-3)]Gal(b1-4)GlcNAc(b1-2)Man(a1-3)[Fuc(a1-2)[GalNAc(a1-3)]Gal(b1-4)GlcNAc(b1-2)Man(a1-6)]Man(b1-4)GlcNAc(b1-4)[Fuc(a1-6)]GlcNAc
# Method in brief: as §1
# [7] = target: Fuc(a1-2)[GalNAc(a1-3)]Gal(b1-4)GlcNAc(b1-3)Gal(b1-4)GlcNAc
# Method in brief: as §1
# [8] = target: Fuc(a1-2)[GalNAc(a1-3)]Gal(b1-4)GlcNAc(b1-3)Gal(b1-4)GlcNAc(b1-3)Gal(b1-4)GlcNAc
# Method in brief: as §1
# [9] = target: Fuc(a1-2)[GalNAc(a1-3)]Gal(b1-4)GlcNAc(b1-3)GalNAc
# Method in brief: as §1
# [10] = target: Fuc(a1-2)[GalNAc(a1-3)]Gal(b1-4)GlcNAc(b1-3)[Fuc(a1-2)[GalNAc(a1-3)]Gal(b1-4)GlcNAc(b1-6)]GalNAc
# Method in brief: as §1
# [11] = target: Fuc(a1-2)[GalNAc(a1-3)]Gal(b1-4)GlcNAc(b1-6)GalNAc
# Method in brief: as §1
# [12] = target: Fuc(a1-2)[GalNAc(a1-3)]Gal(b1-4)[Fuc(a1-3)]GlcNAc
# Method in brief: as §1
# [13] = target: Fuc(a1-2)[GalNAc(a1-3)]Gal(b1-4)[Fuc(a1-3)]GlcNAc(b1-3)GalNAc
# Method in brief: as §1
# [14] = target: Fuc(a1-2)[GalNAc(a1-4)]Gal(b1-4)GlcNAc
# Method in brief: as §1
# [15] = target: Fuc(a1-2)[GalNAc(b1-3)]Gal
# Method in brief: as §1
# Fuc(a1-3)GlcNAc = target: Fuc(a1-3)GlcNAc
# Method in brief: as §1
# [16] = target: Fuc(a1-3)[Gal(b1-4)]Glc6S
# Method in brief: as §1
# [17] = target: Fuc(a1-3)[Gal(b1-4)]GlcNAc
# Method in brief: as §1
# [18] = target: Fuc(a1-3)[Gal(b1-4)]GlcNAc(b1-2)Man
# Method in brief: as §1
# [19] = target: Fuc(a1-3)[Gal(b1-4)]GlcNAc(b1-2)Man(a1-3)[Fuc(a1-3)[Gal(b1-4)]GlcNAc(b1-2)Man(a1-6)]Man(b1-4)GlcNAc(b1-4)GlcNAc
# Method in brief: as §1
# [20] = target: Fuc(a1-3)[Gal(b1-4)]GlcNAc(b1-2)Man(a1-3)[Fuc(a1-3)[Gal(b1-4)]GlcNAc(b1-2)Man(a1-6)]Man(b1-4)GlcNAc(b1-4)[Fuc(a1-6)]GlcNAc
# Method in brief: as §1
# [21] = target: Fuc(a1-3)[Gal(b1-4)]GlcNAc(b1-3)Gal(b1-3)[Fuc(a1-4)]GlcNAc
# Method in brief: as §1
# [22] = target: Fuc(a1-3)[Gal(b1-4)]GlcNAc(b1-3)Gal(b1-4)[Fuc(a1-3)]GlcNAc
# Method in brief: as §1
# [23] = target: Fuc(a1-3)[Gal(b1-4)]GlcNAc(b1-3)Gal(b1-4)[Fuc(a1-3)]GlcNAc(b1-3)Gal(b1-4)[Fuc(a1-3)]GlcNAc
# Method in brief: as §1
# [24] = target: Fuc(a1-3)[Gal(b1-4)]GlcNAc(b1-3)GalNAc
# Method in brief: as §1
# [25] = target: Fuc(a1-3)[Gal(b1-4)]GlcNAc(b1-6)GalNAc
# Method in brief: as §1
# [26] = target: Fuc(a1-3)[Gal(b1-4)]GlcNAc(b1-6)[Gal(b1-3)GlcNAc(b1-3)]Gal(b1-4)Glc
# Method in brief: as §1
# [27] = target: Fuc(a1-3)[Gal(b1-4)]GlcNAc6S
# Method in brief: as §1
# [28] = target: Fuc(a1-3)[Gal3S(b1-4)]Glc
# Method in brief: as §1
# [29] = target: Fuc(a1-3)[Gal3S(b1-4)]GlcNAc
# Method in brief: as §1
# [30] = target: Fuc(a1-3)[Gal3S(b1-4)]GlcNAc6S
# Method in brief: as §1
# [31] = target: Fuc(a1-3)[GalNAc(b1-4)]GlcNAc
# Method in brief: as §1
# [32] = target: Fuc(a1-3)[GalNAc(b1-4)]GlcNAc6S
# Method in brief: as §1
# Fuc(a1-4)GlcNAc = target: Fuc(a1-4)GlcNAc
# Method in brief: as §1
# Fuc(b1-3)GlcNAc = target: Fuc(b1-3)GlcNAc
# Method in brief: as §1
# Gal(a1-2)Gal = target: Gal(a1-2)Gal
# Method in brief: as §1
# Gal(a1-3)Gal = target: Gal(a1-3)Gal
# Method in brief: as §1
# Gal(a1-3)Gal(b1-3)GlcNAc = target: Gal(a1-3)Gal(b1-3)GlcNAc
# Method in brief: as §1
# [33] = target: Gal(a1-3)Gal(b1-3)GlcNAc(b1-2)Man
# Method in brief: as §1
# [34] = target: Gal(a1-3)Gal(b1-3)GlcNAc(b1-2)Man(a1-3)[Gal(a1-3)Gal(b1-3)GlcNAc(b1-2)Man(a1-6)]Man(b1-4)GlcNAc(b1-4)GlcNAc
# Method in brief: as §1
# [35] = target: Gal(a1-3)Gal(b1-3)GlcNAc(b1-3)GalNAc
# Method in brief: as §1
# [36] = target: Gal(a1-3)Gal(b1-3)GlcNAc(b1-6)GalNAc
# Method in brief: as §1
# [37] = target: Gal(a1-3)Gal(b1-3)[Fuc(a1-4)]GlcNAc(b1-2)Man(a1-3)[Gal(a1-3)Gal(b1-3)[Fuc(a1-4)]GlcNAc(b1-2)Man(a1-6)]Man(b1-4)GlcNAc(b1-4)GlcNAc
# Method in brief: as §1
# Gal(a1-3)Gal(b1-4)Glc = target: Gal(a1-3)Gal(b1-4)Glc
# Method in brief: as §1
# Gal(a1-3)Gal(b1-4)GlcNAc = target: Gal(a1-3)Gal(b1-4)GlcNAc
# Method in brief: as §1
binder,measurement,setting,value
B1,glycan array binding signal (z-score),[1],0.067
same,glycan array binding signal (z-score),[2],-0.862
same,glycan array binding signal (z-score),[3],-0.168
same,glycan array binding signal (z-score),[4],-0.804
same,glycan array binding signal (z-score),[5],0.062
same,glycan array binding signal (z-score),[6],1.64
same,glycan array binding signal (z-score),[7],0.253
same,glycan array binding signal (z-score),[8],1.99
same,glycan array binding signal (z-score),[9],-0.523
same,glycan array binding signal (z-score),[10],-0.193
same,glycan array binding signal (z-score),[11],-0.657
same,glycan array binding signal (z-score),[12],-0.227
same,glycan array binding signal (z-score),[13],0.44
same,glycan array binding signal (z-score),[14],0.068
same,glycan array binding signal (z-score),[15],-0.119
same,glycan array binding signal (z-score),Fuc(a1-3)GlcNAc,-0.399
same,glycan array binding signal (z-score),[16],1.3
same,glycan array binding signal (z-score),[17],-0.252
same,glycan array binding signal (z-score),[18],-0.059
same,glycan array binding signal (z-score),[19],-0.461
same,glycan array binding signal (z-score),[20],-0.249
same,glycan array binding signal (z-score),[21],0.332
same,glycan array binding signal (z-score),[22],0.226
same,glycan array binding signal (z-score),[23],-0.52
same,glycan array binding signal (z-score),[24],-0.416
same,glycan array binding signal (z-score),[25],1.24
same,glycan array binding signal (z-score),[26],-0.397
same,glycan array binding signal (z-score),[27],-0.462
same,glycan array binding signal (z-score),[28],0.244
same,glycan array binding signal (z-score),[29],-0.17
same,glycan array binding signal (z-score),[30],0.018
same,glycan array binding signal (z-score),[31],-0.52
same,glycan array binding signal (z-score),[32],-0.666
same,glycan array binding signal (z-score),Fuc(a1-4)GlcNAc,-0.592
same,glycan array binding signal (z-score),Fuc(b1-3)GlcNAc,-0.132
same,glycan array binding signal (z-score),Gal(a1-2)Gal,0.347
same,glycan array binding signal (z-score),Gal(a1-3)Gal,0.464
same,glycan array binding signal (z-score),Gal(a1-3)Gal(b1-3)GlcNAc,-0.36
same,glycan array binding signal (z-score),[33],0.087
same,glycan array binding signal (z-score),[34],1.07
same,glycan array binding signal (z-score),[35],-0.009
same,glycan array binding signal (z-score),[36],-0.537
same,glycan array binding signal (z-score),[37],1.48
same,glycan array binding signal (z-score),Gal(a1-3)Gal(b1-4)Glc,0.288
same,glycan array binding signal (z-score),Gal(a1-3)Gal(b1-4)GlcNAc,-0.514
